Test results from PubChem BioAssay AID1508642 (National Center for Advancing Translational Sciences (NCATS), 2021).
Among all 43,000 compounds or so, about 200 (0.47%) were called active. Inconclusive results (about 12%) are left out. Calls come from the whole dose curve; as a rule, active = well fitted cell-killing curve with a large enough effect; inconclusive = small, poorly fitted or top-dose-only effect, or effect the other way; inactive = flat fitted curve, though single readings scatter. Some of the results follow.

Assay: Cell viability qHTS assay in S16 Pmp22-F2sN cells; note: nearly all actives have a fitted effect of over 65% in size
Conditions: S16 Pmp22-F2sN Schwann cells (luciferase reporters placed in the Pmp22 gene) viability, CellTiter-Glo, 24 h; series mostly up to 57.5 µM; activity change, negative = cytotoxicity: at the top concentration
Method in brief: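 Rat S16 Schwann reporter line, 24 h treatment with library compounds delivered at 23 nL per well. Cell viability by CellTiter-Glo luminescence.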
% is set by controls: 0 for no effect and ±100 for the full control effect.

Structure (SMILES)	activity change, negative = cytotoxicity
COc1ccccc1NC(=O)c1cnc(SCC(=O)N2CCCc3ccccc32)n(C)c1=O	inactive: 4.25%
COc1ccc(OC)c(-n2cnc3cc(C(=O)NC4CCCCCC4)ccc32)c1	inactive: 18.1%
Cc1ccc(NC(=O)Cn2cc3c(n2)CCCCC3)cc1	inactive: -7.46%
CCOC(=O)c1ccccc1NC(=O)c1cc2c(=O)oc3ccc(C)cc3c2s1	inactive: 3.53%
COc1ccccc1CNC(=O)CN1C(=O)CSc2ccc(S(=O)(=O)N3CCCCC3)cc21	inactive: 6.01%
COC(=O)c1c(Oc2ccc(C(C)=O)cc2)nnc(-c2ccccc2)c1-c1ccccc1	inactive: -9.6%
CCN(c1ccccc1)c1ncnc2c1cnn2-c1ccc(C)cc1C	inactive: -0.162%
CCc1ccc(C2CC(=O)Nc3cc4c(cc32)OCO4)cc1 (centres undefined)	inactive: 1.98%
CCOC(=O)c1noc2nc(C)n(CC(=O)Nc3ccccc3F)c(=O)c12	inactive: -7.5%
O=C(Nc1ccc(Cl)cc1Cl)c1cc(S(=O)(=O)N2CCc3ccccc32)ccc1F	inactive: -3.57%
Cc1oc2ncn(C)c(=O)c2c1C(=O)N1CCN(c2ccccc2)CC1	inactive: 6.55%
O=C(Oc1ccc(F)cc1)c1nc(SCc2ccccc2F)ncc1Cl	inactive: 4.71%
COc1ccccc1C(=O)NC1(C(F)(F)F)C(=O)Nc2c1c(=O)[nH]c(=O)n2-c1ccccc1 (centres undefined)	inactive: 2.8%
CCn1c(CNC(=O)C23CC4CC(CC(C4)C2)C3)nnc1SCC(=O)Nc1ccccc1	inactive: 3.34%
Cc1ccc(C)c(OCCn2cc(C(=O)c3ccco3)c3ccccc32)c1	inactive: 13.3%
COc1ccc(-c2nc(CNS(=O)(=O)c3ccccc3)cs2)cc1	inactive: -3.55%
CC1CCCN(CCCNC(=O)c2cn(C)c3ccc(S(=O)(=O)N(C)C4CCCCC4)cc3c2=O)C1 (centres undefined)	inactive: -1.65%
Cc1ccc(NS(=O)(=O)c2ccc3nc(-c4ccccc4)[nH]c3c2)c(Cl)c1	inactive: -13.4%
Cn1c(=O)c2c([nH]c(=O)n2Cc2ccc(Cl)cc2Cl)n(C)c1=O	inactive: 3.98%
Cc1ccc2c(c1)-c1nc(-c3ccc4c(c3)NC(=O)CO4)cc(-c3ccc(Cl)cc3)c1CO2	inactive: -0.266%
Cc1oc2ncn(CC(C)C)c(=O)c2c1C(=O)Nc1cc(F)ccc1F	inactive: -5.26%
COc1ccccc1CNC(=O)c1ccc2c(c1)N(Cc1cccc(Cl)c1)C(=O)c1ccccc1S2(=O)=O	inactive: 0.927%
Cc1ccc(Cn2c(C(=O)O)c(CNC3CCCCCC3)c3ccc(C)cc32)cc1	inactive: 20%
CC(=O)c1ccc(NC(=O)Cn2c(=O)c3cccn3c3ccccc32)cc1	inactive: -0.112%

Structure (SMILES)	activity change, negative = cytotoxicity
COc1ccccc1N1CCN(S(=O)(=O)c2ccc3[nH]c4c(c3c2)CCCC4)CC1	inactive: -15.1%
CCC(=O)N1CCc2cc(Br)cc(S(=O)(=O)CCC(=O)N3CCN(c4ccccc4OC)CC3)c21	inactive: -4.84%
COc1ccc(-c2ccnc3[nH]n(-c4ccccc4)c(=O)c23)cc1	inactive: -0.925%
CCc1ccc(NC(=O)C2CCCN(S(=O)(=O)c3ccc4c(c3)CCCN4C(C)=O)C2)cc1 (centres undefined)	inactive: -5.21%
COc1ccc(C(=O)N2CC(=O)Nc3ccc(C)cc3C2c2ccccc2)c(OC)c1 (centres undefined)	inactive: 3.73%
Cc1ccc(-n2ncc(C(=O)N3CCCCC3)c2C2CCN(C(=O)OC(C)(C)C)CC2)cc1C	inactive: 11.6%
CCOc1cc(-c2nnc(SCC(=O)NCc3ccccc3)nc2-c2ccc(OC)c(OCC)c2)ccc1OC	inactive: 7.13%
COc1ccc(/C=C\c2onc(C)c2S(=O)(=O)N2CCC(C(=O)Nc3ccc(Cl)cc3)CC2)cc1	inactive: 13.3%
Cc1ccc(NC(=O)c2ccc3snnc3c2)cc1Cl	inactive: -2.44%
CCc1ccc(S(=O)(=O)c2nnn(-c3ccc(F)cc3)c2N)cc1	inactive: -11.8%
COc1ccc(OCc2ccc(-c3nc(C#N)c(N4CCC(C)CC4)o3)o2)cc1	inactive: -2.5%
CCCNC(=O)C(=O)NCC(c1ccc2c(c1)OCO2)N1CCOCC1 (centres undefined)	inactive: 10.2%
Cc1ccccc1NC(=O)C1CCC(CNS(=O)(=O)c2ccc3c(c2)C(C)(C)C(=O)N3C)CC1 (centres undefined)	inactive: -23.8%
Cc1cc(NS(=O)(=O)c2ccc(NC(=O)c3ccccc3F)cc2)nc(C)n1	inactive: 2.29%
CCOc1ccc(CCNC(=O)c2cn(C)c3ccc(S(=O)(=O)N4CCOCC4)cc3c2=O)cc1OCC	inactive: 3.29%
COc1ccc(-c2nc(Cn3c(SCc4cccc(Cl)c4)nc4ccncc43)c(C)o2)cc1	inactive: -15.8%
Cc1ccc(Sc2c(C)nn(C(=O)COc3ccccc3)c2C)cc1	inactive: -14.1%
Cn1cnc(S(=O)(=O)N2CCC(C(=O)NCc3ccccc3)CC2)c1	inactive: -0.51%
CC1=C(c2ccc(F)cc2)S(=O)(=O)N=C1N1CCC(C(=O)NCCc2ccco2)CC1	inactive: 4.22%
CS(=O)(=O)N1CCc2cc(S(=O)(=O)NCc3ccccc3Cl)ccc21	inactive: -0.997%
COc1ccc2[nH]c(=O)c(CN(C(=O)c3cccc(Cl)c3)c3ccccc3OC)cc2c1	inactive: -9.61%
CC(=O)Nc1ccccc1OCc1cc(=O)n2c3c(sc2n1)CCCC3	inactive: 1.68%
Cn1c2ccccc2c2cnn(CC(=O)NCc3ccc(Cl)cc3)c(=O)c21	inactive: 15.4%
Cc1ccc(Cn2nc(C)c(NC(=O)c3cc(-c4ccc(F)cc4)on3)c2C)cc1	inactive: 17.9%

Structure (SMILES)	activity change, negative = cytotoxicity
Cc1ccc(NC(=O)Cn2c(C)cc(C)c(C#N)c2=O)cc1	inactive: 15.1%
CCOc1ccc(NC(=O)Cn2c(=O)oc3cc(S(=O)(=O)NC4CCCC4)ccc32)cc1	inactive: -10.8%
CCOC(=O)c1c(S(=O)(=O)N2CCCC(C(=O)N(C)Cc3ccccc3)C2)c(C)n(C)c1C (centres undefined)	inactive: 2.41%
COc1cc(NC(=O)Cn2ccn(Cc3ccccc3OC)c(=O)c2=O)cc(OC)c1	inactive: 5.65%
O=C(CN1CCN(Cc2ccc(F)cc2Cl)S1(=O)=O)Nc1ccc(F)cc1	inactive: -5.11%
COc1ccccc1NC(=O)CSc1nc2ccccc2c(=O)n1CCC(=O)NC1CCCCC1	inactive: -7.83%
CCOc1ccc(NC(=O)CCCc2nc(-c3cccc(OC)c3)no2)cc1	inactive: 0.267%
O=C1CS(=O)(=O)C2(C(=O)Nc3ccccc32)N1c1cccc(Cl)c1 (centres undefined)	inactive: 1.04%
COc1cccc2c1cc1c(=O)n(CC(=O)N3CCN(c4ccccc4F)CC3)nc(C)n12	inactive: -2.99%
Cc1ccc(CNC(=O)c2sc3nc(C)cc(C)c3c2-n2cccc2)cc1	inactive: 27.7%
COc1ccc(-c2cc3nc(N)cc(=O)n3[nH]2)cc1	inactive: 20.5%
CCOC(=O)c1ccc(NC(=O)CSc2nc3ncc(Br)c(C)c3[nH]2)cc1	inactive: -11.9%
COCCCNC(=O)c1ccc(Cn2c(=O)c3ccccc3n(CC(N)=O)c2=O)cc1	inactive: -7.33%
Cc1cccc(C)c1OCc1cc(=O)n2c(-c3ccccc3)csc2n1	inactive: -5.1%
Cn1nc(-c2ccc(OCC(=O)Nc3cccc(C(F)(F)F)c3)cc2)c2ccccc2c1=O	inactive: 24.9%
COc1ccc(NC(=O)c2cc(S(=O)(=O)N3CCOCC3)cn2C)cc1Cl	inactive: -1.8%
O=C(NCCCc1nc2ccccc2n1Cc1ccc(F)cc1)C1CCCCC1	inactive: 4.83%
Cc1ccc(C)c(CSc2nc3c([nH]c4ccccc43)c(=O)n2C)c1	inactive: 12.3%
COCCNC(=O)CCn1c(=O)c2cc(OC)c(OC)cc2n(CC(=O)Nc2ccc(F)c(Cl)c2)c1=O	inactive: -4.48%
CC(=O)N1CCc2c(sc3c2c(=O)n(-c2ccccc2)c(=O)n3CC(=O)c2ccc(Cl)cc2)C1	inactive: -1.9%
O=C(NCc1cccc(F)c1)C1CCN(c2nc3ccccc3nc2C(F)(F)F)CC1	inactive: -6.49%
CCc1ccccc1Nc1nn2c(=O)c3ccc(C(=O)NCc4ccc(C)cc4)cc3nc2s1	inactive: -3.21%
Cc1cc(C)c(NC(=O)Cn2c(=O)n(-c3cccc(C(F)(F)F)c3)c(=O)c3c(C)c(C)sc32)c(C)c1	inactive: -5.92%
O=C(O)c1ccc(Nc2nc3ccccc3c3nncn23)cc1	inactive: -19.2%

Structure (SMILES)	activity change, negative = cytotoxicity
COc1ccccc1NC(=O)C(Cc1ccccc1)NS(=O)(=O)c1ccc2c(c1)CCN2C(C)=O (centres undefined)	inactive: -6.36%
CC(=O)N1CCOc2cc(S(=O)(=O)NCc3ccccc3Cl)c(C)cc21	inactive: 12.3%
Cc1cc2[nH]c(=O)c(=O)[nH]c2cc1S(=O)(=O)NCc1ccc(F)cc1	inactive: -0.766%
CCOCCCNC(=O)c1ccc2c(c1)NC(=O)C(CS(=O)(=O)Cc1ccc(F)cc1Cl)N2 (centres undefined)	inactive: 0.436%
Cc1cc(C)n(-c2nc3ccccc3nc2Nc2ccc(C(C)C)cc2)n1	inactive: 2.19%
O=C(NC1CCCCCC1)C1CCN(C(=O)N2CCOc3ccc(Cl)cc32)CC1	inactive: -22.6%
CCCCc1nn2c(=O)cc(COC(=O)c3cccc(NC(=O)COc4ccccc4)c3)nc2s1	inactive: 1.26%
Cc1ccc(C2=NN(CC(=O)NCCCN(CC(C)C)CC(C)C)C(=O)CC2)cc1	inactive: 4.5%
O=C(Nc1ccc(Cl)cc1Cl)c1cc(S(=O)(=O)N2CCC3(CC2)OCCO3)ccc1F	inactive: -0.924%
CCN(CCCNC(=O)CSc1cc(=O)n(C)c2ccccc12)c1ccccc1	inactive: 13.5%
CCOc1cccc(NC(=O)C2CC(=O)N(C)C(=Nc3cccc(OC)c3)S2)c1 (centres undefined)	inactive: 22.6%
Cc1cc(C)c(NC(=O)C(C)n2c(=O)cc(C)c3c(C)nn(-c4ccccc4)c32)c(C)c1 (centres undefined)	inactive: 2.03%
COc1ccc(CNS(=O)(=O)c2cc3c(cc2C)N(C)CCO3)cc1	inactive: -5.64%
Cc1ccc(Cn2cc(C(=O)c3ccc(F)cc3)c(=O)c3cc4c(cc32)OCO4)cc1	inactive: -0.697%
CCOC(=O)Cn1c(=O)n(CC2CCCO2)c2nc(-c3ccccc3F)nc(C(N)=O)c21 (centres undefined)	inactive: 22.5%
Cc1cccc(NC(=O)c2cc(S(=O)(=O)NCc3ccc4c(c3)OCO4)ccc2F)c1C	inactive: -0.294%
COC(=O)c1ccc(NC(=O)CCc2c(C)nc3c(-c4ccccc4)c(C)nn3c2C)cc1	inactive: 0.236%
CCn1c(CNC(=O)c2ccc(OC)cc2)nnc1SCC(=O)Nc1ccccc1	inactive: -0.765%
COc1ccc(-n2c(C)c(C(C)=O)c3cc(OC(=O)c4ccc(C)cc4)ccc32)cc1	inactive: -4.12%
CCOC(=O)c1ccc(OCC2c3cc(OC)c(OC)cc3CCN2C(=O)c2ccc(S(=O)(=O)N3CCCC3)cc2)cc1 (centres undefined)	inactive: 1.5%
CCC1=Nc2cc(C(=O)NCC(C)c3ccccc3)ccc2Sc2ccc(C)cc21 (centres undefined)	inactive: -22.5%
Cc1ccc(CCNC(=O)c2cn(C)c3ccc(S(=O)(=O)N(C)C4CCCCC4)cc3c2=O)cc1	inactive: 9.78%
